# This is one part of the list.
# B1: HPA (Helix pomatia), Q575S3 (protein)
# chain: MWAHLTGLLLICALSLSAAQRAQTGEIDCGSDSSWPKDPSDNPNRDNTREIVKHVTFSPQFCREPKVILSVTTLDAEHTKNLRYEARLKSVSPSGLSASCYSWHDGTIYRMKLSWLAVED
# Key:
# Experiment in all cases: glycan array binding signal (z-score within array); higher = stronger binding
# Conditions in all cases: glycan notation: IUPAC condensed, linker removed
# [1] = target: Neu5Ac(a2-3)Gal(b1-4)GlcNAc(b1-2)Man(a1-3)[GlcNAc(b1-2)Man(b1-4)GlcNAc(b1-2)Man(a1-6)]Man(b1-4)GlcNAc(b1-4)GlcNAc
# Summary of the method: (§1)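 Arrays were curated from the Consortium for Functional Glycomics database, 3228 in total, and kept only where the protein sequence was available. Binding is expressed as a within-array Z-score. This score was averaged across arrays of the same protein sequence at different concentrations or buffers and across linkers, and negative values can be read as non-binding.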
# [2] = target: Neu5Ac(a2-3)Gal(b1-4)GlcNAc(b1-2)Man(a1-3)[GlcNAc(b1-4)][Neu5Ac(a2-3)Gal(b1-4)GlcNAc(b1-2)Man(a1-6)]Man(b1-4)GlcNAc(b1-4)GlcNAc
# Summary of the method: as §1
# [3] = target: Neu5Ac(a2-3)Gal(b1-4)GlcNAc(b1-2)Man(a1-3)[Neu5Ac(a2-3)Gal(b1-4)GlcNAc(b1-2)Man(a1-6)]Man(b1-4)GlcNAc(b1-4)GlcNAc
# Summary of the method: as §1
# [4] = target: Neu5Ac(a2-3)Gal(b1-4)GlcNAc(b1-2)Man(a1-3)[Neu5Ac(a2-3)Gal(b1-4)GlcNAc(b1-2)Man(a1-6)]Man(b1-4)GlcNAc(b1-4)[Fuc(a1-6)]GlcNAc
# Summary of the method: as §1
# [5] = target: Neu5Ac(a2-3)Gal(b1-4)GlcNAc(b1-2)Man(a1-3)[Neu5Ac(a2-6)Gal(b1-4)GlcNAc(b1-2)Man(a1-6)]Man(b1-4)GlcNAc(b1-4)GlcNAc
# Summary of the method: as §1
# [6] = target: Neu5Ac(a2-3)Gal(b1-4)GlcNAc(b1-2)[Neu5Ac(a2-3)Gal(b1-4)GlcNAc(b1-4)]Man(a1-3)[GlcNAc(b1-4)][Neu5Ac(a2-3)Gal(b1-4)GlcNAc(b1-2)[Neu5Ac(a2-3)Gal(b1-4)GlcNAc(b1-6)]Man(a1-6)]Man(b1-4)GlcNAc(b1-4)GlcNAc
# Summary of the method: as §1
# [7] = target: Neu5Ac(a2-3)Gal(b1-4)GlcNAc(b1-2)[Neu5Ac(a2-3)Gal(b1-4)GlcNAc(b1-4)]Man(a1-3)[GlcNAc(b1-4)][Neu5Ac(a2-3)Gal(b1-4)GlcNAc(b1-4)Man(a1-6)]Man(b1-4)GlcNAc(b1-4)GlcNAc
# Summary of the method: as §1
# [8] = target: Neu5Ac(a2-3)Gal(b1-4)GlcNAc(b1-2)[Neu5Ac(a2-3)Gal(b1-4)GlcNAc(b1-6)]Man(a1-6)[Neu5Ac(a2-3)Gal(b1-4)GlcNAc(b1-2)Man(a1-3)]Man(b1-4)GlcNAc(b1-4)GlcNAc
# Summary of the method: as §1
# [9] = target: Neu5Ac(a2-3)Gal(b1-4)GlcNAc(b1-2)[Neu5Ac(a2-3)Gal(b1-4)GlcNAc(b1-6)]Man(a1-6)[Neu5Ac(a2-3)Gal(b1-4)GlcNAc(b1-2)Man(a1-3)][GlcNAc(b1-4)]Man(b1-4)GlcNAc(b1-4)GlcNAc
# Summary of the method: as §1
# [10] = target: Neu5Ac(a2-3)Gal(b1-4)GlcNAc(b1-3)Gal
# Summary of the method: as §1
# [11] = target: Neu5Ac(a2-3)Gal(b1-4)GlcNAc(b1-3)Gal(b1-3)GlcNAc
# Summary of the method: as §1
# [12] = target: Neu5Ac(a2-3)Gal(b1-4)GlcNAc(b1-3)Gal(b1-4)GlcNAc
# Summary of the method: as §1
# [13] = target: Neu5Ac(a2-3)Gal(b1-4)GlcNAc(b1-3)Gal(b1-4)GlcNAc(b1-2)Man(a1-3)[Neu5Ac(a2-3)Gal(b1-4)GlcNAc(b1-3)Gal(b1-4)GlcNAc(b1-2)Man(a1-6)]Man(b1-4)GlcNAc(b1-4)GlcNAc
# Summary of the method: as §1
# [14] = target: Neu5Ac(a2-3)Gal(b1-4)GlcNAc(b1-3)Gal(b1-4)GlcNAc(b1-3)Gal(b1-4)GlcNAc
# Summary of the method: as §1
# [15] = target: Neu5Ac(a2-3)Gal(b1-4)GlcNAc(b1-3)Gal(b1-4)GlcNAc(b1-3)Gal(b1-4)GlcNAc(b1-2)Man(a1-3)[Neu5Ac(a2-3)Gal(b1-4)GlcNAc(b1-3)Gal(b1-4)GlcNAc(b1-3)Gal(b1-4)GlcNAc(b1-2)Man(a1-6)]GalNAc
# Summary of the method: as §1
# [16] = target: Neu5Ac(a2-3)Gal(b1-4)GlcNAc(b1-3)Gal(b1-4)GlcNAc(b1-3)GalNAc
# Summary of the method: as §1
# [17] = target: Neu5Ac(a2-3)Gal(b1-4)GlcNAc(b1-3)Gal(b1-4)GlcNAc(b1-3)[Neu5Ac(a2-3)Gal(b1-4)GlcNAc(b1-3)Gal(b1-4)GlcNAc(b1-6)]GalNAc
# Summary of the method: as §1
# [18] = target: Neu5Ac(a2-3)Gal(b1-4)GlcNAc(b1-3)Gal(b1-4)GlcNAc(b1-6)[Gal(b1-3)]GalNAc
# Summary of the method: as §1
# [19] = target: Neu5Ac(a2-3)Gal(b1-4)GlcNAc(b1-3)Gal(b1-4)[Fuc(a1-3)]GlcNAc
# Summary of the method: as §1
# [20] = target: Neu5Ac(a2-3)Gal(b1-4)GlcNAc(b1-3)GalNAc
# Summary of the method: as §1
# [21] = target: Neu5Ac(a2-3)Gal(b1-4)GlcNAc(b1-3)[Neu5Ac(a2-3)Gal(b1-4)GlcNAc(b1-6)]GalNAc
# Summary of the method: as §1
# [22] = target: Neu5Ac(a2-3)Gal(b1-4)GlcNAc(b1-6)GalNAc
# Summary of the method: as §1
# [23] = target: Neu5Ac(a2-3)Gal(b1-4)GlcNAc(b1-6)[Gal(b1-3)]GalNAc
# Summary of the method: as §1
# [24] = target: Neu5Ac(a2-3)Gal(b1-4)GlcNAc(b1-6)[Neu5Ac(a2-3)Gal(b1-3)]GalNAc
# Summary of the method: as §1
# [25] = target: Neu5Ac(a2-3)Gal(b1-4)GlcNAc6S
# Summary of the method: as §1
# [26] = target: Neu5Ac(a2-3)Gal(b1-4)[Fuc(a1-3)]GlcNAc
# Summary of the method: as §1
# [27] = target: Neu5Ac(a2-3)Gal(b1-4)[Fuc(a1-3)]GlcNAc(b1-2)Man
# Summary of the method: as §1
# [28] = target: Neu5Ac(a2-3)Gal(b1-4)[Fuc(a1-3)]GlcNAc(b1-3)Gal
# Summary of the method: as §1
# [29] = target: Neu5Ac(a2-3)Gal(b1-4)[Fuc(a1-3)]GlcNAc(b1-3)Gal(b1-4)GlcNAc
# Summary of the method: as §1
# [30] = target: Neu5Ac(a2-3)Gal(b1-4)[Fuc(a1-3)]GlcNAc(b1-3)Gal(b1-4)[Fuc(a1-3)]GlcNAc(b1-3)Gal(b1-4)[Fuc(a1-3)]GlcNAc
# Summary of the method: as §1
# [31] = target: Neu5Ac(a2-3)Gal(b1-4)[Fuc(a1-3)]GlcNAc(b1-3)GalNAc
# Summary of the method: as §1
# [32] = target: Neu5Ac(a2-3)Gal(b1-4)[Fuc(a1-3)]GlcNAc(b1-6)[Gal(b1-3)]GalNAc
# Summary of the method: as §1
# [33] = target: Neu5Ac(a2-3)Gal(b1-4)[Fuc(a1-3)]GlcNAc(b1-6)[Neu5Ac(a2-3)Gal(b1-3)]GalNAc
# Summary of the method: as §1
# [34] = target: Neu5Ac(a2-3)Gal(b1-4)[Fuc(a1-3)]GlcNAc6S
# Summary of the method: as §1
# [35] = target: Neu5Ac(a2-3)Gal6S(b1-4)GlcNAc
# Summary of the method: as §1
# [36] = target: Neu5Ac(a2-3)Gal6S(b1-4)[Fuc(a1-3)]GlcNAc
# Summary of the method: as §1
# Neu5Ac(a2-3)GalNAc = target: Neu5Ac(a2-3)GalNAc
# Summary of the method: as §1
# [37] = target: Neu5Ac(a2-3)GalNAc(b1-4)GlcNAc
# Summary of the method: as §1
binder,measurement,setting,value
B1,glycan array binding signal (z-score),[1],-0.26
same,glycan array binding signal (z-score),[2],-0.262
same,glycan array binding signal (z-score),[3],-0.261
same,glycan array binding signal (z-score),[4],-0.253
same,glycan array binding signal (z-score),[5],-0.273
same,glycan array binding signal (z-score),[6],-0.259
same,glycan array binding signal (z-score),[7],-0.261
same,glycan array binding signal (z-score),[8],-0.241
same,glycan array binding signal (z-score),[9],-0.249
same,glycan array binding signal (z-score),[10],-0.26
same,glycan array binding signal (z-score),[11],-0.238
same,glycan array binding signal (z-score),[12],-0.267
same,glycan array binding signal (z-score),[13],-0.146
same,glycan array binding signal (z-score),[14],-0.265
same,glycan array binding signal (z-score),[15],-0.04
same,glycan array binding signal (z-score),[16],-0.266
same,glycan array binding signal (z-score),[17],-0.203
same,glycan array binding signal (z-score),[18],-0.243
same,glycan array binding signal (z-score),[19],-0.259
same,glycan array binding signal (z-score),[20],-0.266
same,glycan array binding signal (z-score),[21],-0.265
same,glycan array binding signal (z-score),[22],-0.252
same,glycan array binding signal (z-score),[23],-0.256
same,glycan array binding signal (z-score),[24],-0.259
same,glycan array binding signal (z-score),[25],-0.259
same,glycan array binding signal (z-score),[26],-0.268
same,glycan array binding signal (z-score),[27],-0.253
same,glycan array binding signal (z-score),[28],-0.27
same,glycan array binding signal (z-score),[29],-0.253
same,glycan array binding signal (z-score),[30],-0.257
same,glycan array binding signal (z-score),[31],-0.211
same,glycan array binding signal (z-score),[32],-0.245
same,glycan array binding signal (z-score),[33],-0.243
same,glycan array binding signal (z-score),[34],-0.26
same,glycan array binding signal (z-score),[35],-0.273
same,glycan array binding signal (z-score),[36],-0.267
same,glycan array binding signal (z-score),Neu5Ac(a2-3)GalNAc,-0.264
same,glycan array binding signal (z-score),[37],-0.268

# From the supplement of paper PMC8728848
